According to PubChem BioAssay AID624418 (National Center for Advancing Translational Sciences (NCATS), 2012):
Out of some 410,000 compounds screened, about 530 (0.13%) were called active. Inconclusive results, whose numbers are uncertain, are shown with a selection of clear calls. The call rests on the fitted dose curve; in most records, active means well fitted inhibition curve with a large enough effect; inconclusive means small, poorly fitted or top-dose-only effect, or another doubt; inactive means no such curve, though single readings can be large or run the other way. A potency beside an inconclusive call is a rough fit, not a confirmed value.

Assay: qHTS of GLP-1 Receptor Inverse Agonists: Cytotox Screen
Settings: HEK293 cAMP-luciferase reporter cells, luminescence, 24 h; series mostly up to 38.3 µM
Outline: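 Cells in DMEM/10% Nu serum/1% pen-strep, 1536-well format. Pre-incubated 12 h, dosed with 23 nL compound, incubated a further 24 h. Luciferase detection, 12 min at room temp, luminescence.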
Potency means the concentration at half of the fitted maximal effect.

Q: Which Potency does the source give for `Cc1ccc(S(=O)(=O)CC(=O)Nc2ncc([N+](=O)[O-])s2)cc1` here?
A: The Potency was inconclusive: 7.94 µM [inhibitor, partial curve, poor fit].

Q: With `COc1ccccc1Nc1nc(NCC2CCCO2)c2ccccc2n1` (stereo not given) as the molecule, how does the Potency read?
A: Its Potency is inconclusive: 7.94 µM [inhibitor, partial curve, poor fit].

Q: Which Potency does the source give for `COC(=O)CN1C(=S)N(C)C(=O)/C1=C/c1cccs1` here?
A: Its Potency is inconclusive: 12.6 µM [inhibitor, partial curve, poor fit].

Q: With `O=[N+]([O-])c1ccc(-c2ccn[nH]2)o1` as the molecule, how does the Potency read?
A: The Potency was inconclusive: 28.2 µM [inhibitor, partial curve, poor fit].

Q: For `Cc1cccc(C)c1NC(=S)NC(=O)c1ccc(Br)o1`, which Potency is on record?
A: Its Potency is inconclusive: 28.2 µM [inhibitor, single point].

Q: Which Potency does the source give for `CCN1CCN(c2ccc(S(=O)(=O)N3CCCCC3)cc2NC(=O)COc2ccc(Cl)cc2)CC1` here?
A: The Potency was “inactive”.

Q: Which Potency does the source give for `O=C(/C=C/c1ccc([N+](=O)[O-])cc1)c1ccccc(=O)c1O` here?
A: Its Potency is inconclusive: 5.01 µM [inhibitor, full curve, poor fit].

Q: With `C/C(=N\NC(=S)NCc1ccccc1)c1ccc2ccccc2c1` as the molecule, how does the Potency read?
A: Its Potency is active: 2.82 µM.

Q: With `NC(=O)c1ccc(Nc2ccc([N+](=O)[O-])cc2[N+](=O)[O-])cc1` as the molecule, how does the Potency read?
A: The Potency was inconclusive: 7.94 µM [inhibitor, partial curve, poor fit].

Q: With `O=C(CCl)N1N=C(c2ccco2)CC1c1cccs1` (stereo not given) as the molecule, how does the Potency read?
A: Its Potency is inconclusive: 14.1 µM [inhibitor, partial curve, poor fit].

Q: For `CN(C)CCNC(=O)/C(=C/c1ccc(-c2ccc(Cl)cc2)o1)NC(=O)c1ccccc1`, which Potency is on record?
A: Its Potency is inconclusive: 28.2 µM [inhibitor, single point].

Q: With `CCOc1ccccc1NC(=O)c1cc(-c2ccncc2)nc2c(Cl)cccc12` as the molecule, how does the Potency read?
A: Its Potency is inconclusive: 28.2 µM [inhibitor, single point].

Q: For `COCCn1nnnc1C(c1ccccn1)N1CCN(c2cc(C)ccc2C)CC1` (stereo not given), which Potency is on record?
A: The Potency was inconclusive: 10 µM [inhibitor, single point].

Q: For `COc1ccccc1NC(=O)C(C)OC(=O)c1cccc(-n2cnnn2)c1` (stereo not given), which Potency is on record?
A: Its Potency is “inactive”.

Q: For `O[C@@H]1CN(C2CCCCC2)CC[C@H]1N1CCN(CCc2ccccc2)CC1`, which Potency is on record?
A: Its Potency is inconclusive: 28.2 µM [inhibitor, single point].

Q: Which Potency does the source give for `CC(C)(C)N=C1NN=C(c2cc3ccccc3o2)CS1` here?
A: The Potency was inconclusive: 10 µM [inhibitor, partial curve, poor fit].

Q: With `Cc1c[n+](C)ccc1CC1C([N+](=O)[O-])=C[N-]c2ncnn21` (stereo not given) as the molecule, how does the Potency read?
A: Its Potency is inconclusive: 31.6 µM [inhibitor, single point].

Q: For `CCc1nc(CN2CCCC(C(=O)Nc3ccc(-c4cccc(OC)c4)cc3)C2)c(C)[nH]1` (stereo not given), which Potency is on record?
A: The Potency was “inactive”.

Q: For `COc1ccc(-n2c(COc3ccccc3)nnc2SCC(N)=O)cc1`, which Potency is on record?
A: Its Potency is “inactive”.

Q: With `CC1CN(c2ccc([N+](=O)[O-])c(NCCOc3ccccc3)c2)CC(C)N1` (stereo not given) as the molecule, how does the Potency read?
A: The Potency was inconclusive: 28.2 µM [inhibitor, single point].

Q: For `O=C(NCCSc1ccccc1)c1ccc(Br)cc1`, which Potency is on record?
A: The Potency was “inactive”.

Q: With `COc1cc(CC(=O)OCC(=O)c2ccc3c(c2)OCCO3)cc(OC)c1OC` as the molecule, how does the Potency read?
A: Its Potency is inconclusive: 0.708 µM [inhibitor, full curve, poor fit].

Q: Which Potency does the source give for `CCn1cc([N+](=O)[O-])c(C(=O)N2N=C(c3ccc(Cl)c(Cl)c3)CC2c2ccccc2O)n1` (stereo not given) here?
A: The Potency was inconclusive: 28.2 µM [inhibitor, single point].

Q: Which Potency does the source give for `Cc1ccc(-n2c(O)c(C=Nc3ccccc3-c3n[nH]c(=S)[nH]c3=O)c3ccccc3c2=O)cc1C` here?
A: The Potency was inconclusive: 10 µM [inhibitor, partial curve, poor fit].

Q: Which Potency does the source give for `Cc1nn(-c2ccccc2)c2sc(C(=O)Nc3ccc(Cl)cc3Cl)cc12` here?
A: Its Potency is “inactive”.

Q: For `O=C(c1ccccc1)c1cc([N+](=O)[O-])ccc1N1CCCC1`, which Potency is on record?
A: The Potency was inconclusive: 31.6 µM [inhibitor, single point].

Q: Which Potency does the source give for `NC(=O)CSc1cn(Cc2cccc(F)c2)c2ccccc12` here?
A: The Potency was inconclusive: 28.2 µM [inhibitor, single point].

Q: For `C=CCn1c(-c2cccn(Cc3ccc(Cl)cc3Cl)c2=O)n[nH]c1=S`, which Potency is on record?
A: The Potency was inconclusive: 7.08 µM [inhibitor, partial curve, poor fit].

Q: For `OC(CNCC1CCCO1)Cn1c2ccc(Br)cc2c2cc(Br)ccc21` (stereo not given), which Potency is on record?
A: Its Potency is inconclusive: 12.6 µM [inhibitor, single point].

Q: With `COC(=O)C[C@H]1C=C[C@@H](NC(=O)c2ccncc2)[C@@H](CO)O1` as the molecule, how does the Potency read?
A: The Potency was “inactive”.

Q: With `Cc1cc(Br)ccc1SCC(=O)NCC(c1ccco1)N1CCCCC1` (stereo not given) as the molecule, how does the Potency read?
A: The Potency was inconclusive: 11.2 µM [inhibitor, single point].

Q: For `COc1ccc2c(C)c(CCC(=O)NCCc3ccccc3)c(=O)oc2c1`, which Potency is on record?
A: The Potency was “inactive”.

Q: With `COc1ccc(C(=O)NCC(=O)N/N=C/c2ccc([N+](=O)[O-])s2)cc1OC` as the molecule, how does the Potency read?
A: The Potency was inconclusive: 7.94 µM [inhibitor, partial curve, poor fit].

Q: For `CCCOc1ccc(C(=O)Nc2cc(S(=O)(=O)N3CCOCC3)ccc2N2CCOCC2)cc1`, which Potency is on record?
A: Its Potency is “inactive”.

Q: For `COC(=O)c1ccc(NC(=O)c2c(NCc3cccc(F)c3)sc3c2CCCC3)cc1`, which Potency is on record?
A: The Potency was inconclusive: 10 µM [inhibitor, single point].

Q: Which Potency does the source give for `NS(=O)(=O)c1ccc(N=Nc2c(=O)[nH]n3c(=O)c4c([nH]c23)CCCC4)cc1` here?
A: Its Potency is inconclusive: 10 µM [inhibitor, partial curve, poor fit].

Q: With `COc1ccc(C(=O)NCCn2cc(SCC(=O)Nc3ccc4c(c3)OCCO4)c3ccccc32)cc1` as the molecule, how does the Potency read?
A: The Potency was inconclusive: 28.2 µM [inhibitor, single point].

Q: Which Potency does the source give for `O=C1CSc2ccc(C(=O)Nc3cccc(S(=O)(=O)Nc4ccc(Br)cc4)c3)cc2N1` here?
A: The Potency was inconclusive: 28.2 µM [inhibitor, single point].

Q: Which Potency does the source give for `O=C(NN=Cc1ccccc1O)c1cccc([N+](=O)[O-])c1` here?
A: Its Potency is inconclusive: 0.891 µM [inhibitor, full curve].

Q: Which Potency does the source give for `CCOC(=O)c1c(C)[nH]c2c1-c1ccccc1C(=O)C2=O` here?
A: The Potency was inconclusive: 2 µM [inhibitor, full curve, poor fit].
